Data on 22 molecules can be found in paper PMC12136788.

The other results are listed elsewhere or left out.

T1: UNK ZnF1-3 (human, UniProt Q9C0B0 31-174)
T1 sequence: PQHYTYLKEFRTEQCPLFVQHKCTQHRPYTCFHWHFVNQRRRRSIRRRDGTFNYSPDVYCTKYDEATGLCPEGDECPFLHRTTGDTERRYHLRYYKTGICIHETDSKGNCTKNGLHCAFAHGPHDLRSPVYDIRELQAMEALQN

B1: chr3:100432656:100432657:+_ENSG00000114354_ENST00000490574|hu_mus|motif|central (ssRNA)
RNA: GGGAGUUCUACAGUCCGACGAUCUGUAACUUCAUCAUUACUCAGAAGCUUUCCUCUGAAUACUCGCUGCAUCAUUAGCACGGAUUCAUCGUAAGUAAUGUCUUCAUUAUGAAUGGGAAUUCGUCGGAUAUCUUCCCCAAGUUGCAACAGAGGAUUGAGCAUCA
B2: chr7:65705475:65705476:+_ENSG00000169902_ENST00000304842|hu_hu|hu_hu_hu_mus_True|48_48 (ssRNA)
RNA: GGGAGUUCUACAGUCCGACGAUCUCUAUUCGGUGAUGGCACUCCAUGGCAUGCUGGCCCAGGUAAAACACGGUCACAGAACUAAUCACCAGACAUGCCAAGAGUAAGUUCUGCUUCAGCUUCCCAACCAUCUUGAUGUGGUUACAACAGAGGAUUGAGCAUCA
B3: chr2:170668292:170668293:+_ENSG00000138385_ENST00000260956|hu_hu|FALSE|FALSE (ssRNA)
RNA: GGGAGUUCUACAGUCCGACGAUCGUGGACCUAAUUCGGUUUUCCUUUUAAAAGCCCCGCAAACAAAAGUCGUUUAAAACCUAUUUAAAAUGAAUAAAAAAUUGGUUUACUAAACUACUGGUCUCCAGCACCAUUUUCUGUUUUCAACAGAGGAUUGAGCAUCA
B4: chr16:94664741:94664742:+_ENSMUSG00000040785_ENSMUST00000117648|mus_hu|FALSE|FALSE (ssRNA)
RNA: GGGAGUUCUACAGUCCGACGAUCUGGUACUGAUCUUGGUAGCUGAUAUUCAGGAGAAAGGCUGGCCAAGGGUGUAUAUAUGCUGGUGUACUGGGGCAAACCUGGUAACACGUUUAUGUAUGCUGGCGGUGUCUGGGUGAUAUCCAACAGAGGAUUGAGCAUCA
B5: chr2:48026839:48026840:+_ENSG00000116062_ENST00000540021|hu_hu|hu_hu_hu_mus_False|48_58 (ssRNA)
RNA: GGGAGUUCUACAGUCCGACGAUCAUAGUGAGCCACUAGCGUCCUAAAUCUGGAACAGUGGCGGUCAUCCGAAAACUGACCUAUGAAAAACUUUCCCAGUGAAGUGUCCACAAAGCAAACACCAUACACACGAGUGUGACCAGACAACAGAGGAUUGAGCAUCA
B6: chr15:58001004:58001005:+_ENSG00000255529_ENST00000299638|hu_hu|FALSE|FALSE (ssRNA)
RNA: GGGAGUUCUACAGUCCGACGAUCAUCUGUACCCACAUCAACUUCUGCAAUUGCUUUUUGCCUUAGCUUACAGUCUAAACUAACAGGGUUAAACAGUUCACUUUUUCUUCUAACUUCUUCACAUUCUGCAAUGGCAGCUUUCAGCAACAGAGGAUUGAGCAUCA
B7: chr12:72289710:72289711:+_ENSMUSG00000034601_ENSMUST00000129376|mus_mus|FALSE|FALSE (ssRNA)
RNA: GGGAGUUCUACAGUCCGACGAUCAGAGAGUUAGGAUUCUCUUCAUCCAGUGGCAGGUCUCCACUGUCCCAUGGCUUGGGAAGUUCAGGGCUUGAUAACUUCAACUUGUCAAUGGAAGUUUCGGACAAAGUUGGGGUAAGAGCUCAACAGAGGAUUGAGCAUCA
B8: chr11:50112788:50112789:-_ENSMUSG00000020368_ENSMUST00000020637|mus_hu|FALSE|FALSE (ssRNA)
RNA: GGGAGUUCUACAGUCCGACGAUCGUCAGAGGUCAUGGACCACAGCUCCAAACCAAUAGCACUAAAAGGAGUCAUUCUGAAAGGUUCCAGAUCUUCAAAGAAAUCUGGAUUUGGUAUUUUCCUGGGUUUCCAGAUUCCCUGGUACAACAGAGGAUUGAGCAUCA
B9: chr12:120936209:120936210:+_ENSG00000088986_ENST00000242577|hu_hu|motif|central (ssRNA)
RNA: GGGAGUUCUACAGUCCGACGAUCUGAGAGAAAACAACGUGGGCAGAAGUAUGGAAUAGAAAAUAAAUACAAAUGUAGGCGGUUCUGCUAAUUGUUUUAUAACCACGACAAACUAGUACAGAGAAUGCCCUGUACAAAACACAACAACAGAGGAUUGAGCAUCA
B10: chr8:28827827:28827828:+_ENSG00000147421_ENST00000397358|hu_hu|FALSE|FALSE (ssRNA)
RNA: GGGAGUUCUACAGUCCGACGAUCAUUCUCCCUCCCAUUUUGAUUGGUAGUGCAAGGCUGUGGGGAAGUAUCAUAACUGUUGCUAGGUGACGGGGACAUUCCCGAAUGCUGCGUCUGUGUGGAAGCUGUAGCUGUAGAGGAAGACAACAGAGGAUUGAGCAUCA
B11: chr6:83927055:83927056:+_ENSMUSG00000030016_ENSMUST00000032088|mus_hu|FALSE|FALSE (ssRNA)
RNA: GGGAGUUCUACAGUCCGACGAUCUGUAGCUUUUGCCUUAGGAGAAGAGACUAUAACAGCCUUGAUGCUUGGUUUACUGCUAGAUACAUCUGAUACAGCCAGAAUACUAGUUUUACUAGUUUCAUCAGGCUUAUUAGCCUGACCCAACAGAGGAUUGAGCAUCA
B12: 163978229_163978349_2261_3pUTR_ENSMUSG00000018209_ENSMUST00000018353|mouse|control|control (ssRNA)
RNA: GGGAGUUCUACAGUCCGACGAUCAGGCACUGGGCAGUAUCUUGGAUGCGACUUUAGGCAGCUGGGAGGGUGGCGAUGGAUGAAAGGCGUUGAGACAGCAAAGGCUACUCUGCAAAGAGGGUGCAGGCGUCUCCUGGGAAAAGACAACAGAGGAUUGAGCAUCA
B13: 55316524_55316644_4947_3pUTR_ENSMUSG00000018583_ENSMUST00000018727|mouse|control|control (ssRNA)
RNA: GGGAGUUCUACAGUCCGACGAUCGUAGGUAUUGCCCGAGGCCCUGCCUGCUCCUGGAAGCCCUGAUUGCUCAACUGCUUCUCACCAUCUCUUCCCCUUAUUACUGGGUCAUAAUUCAAGGCAGACAUAAAACCUAACUAAGUGCAACAGAGGAUUGAGCAUCA
B14: 14247384_14252473_1229_CDS_ENSMUSG00000039219_ENSMUST00000039538|mouse|control|control (ssRNA)
RNA: GGGAGUUCUACAGUCCGACGAUCAAGCACAGGCCGUUUGUUAAUAGGUGUACCUCUAUCCUCCAUGAACUUAUACAGCUGCUGAAGAAAGUUCUCCCUUUCCUCUGGAAAUGGUUCUAUUUCUUCCUCUUCUUCGCUGCUGUUCAACAGAGGAUUGAGCAUCA
B15: 130454760_130463363_1317_CDS_ENSG00000196455_ENST00000356763|human|control|control (ssRNA)
RNA: GGGAGUUCUACAGUCCGACGAUCGAAAAAAUGUCCAUUUCUAUAAGCCAAAAGUUGAGAGAGAUCAAAUAAUGGUACACCUUCUGUAAAAAGCUCAGCUAUCACACAACCUGCUGAAAAGAUGUCCAUUGCUCUCUUCAACUCCAACAGAGGAUUGAGCAUCA
B16: 57396974_57397094_119_5pUTR_ENSMUSG00000021938_ENSMUST00000022507|mouse|control|control (ssRNA)
RNA: GGGAGUUCUACAGUCCGACGAUCUCAGGUUUCCUCUUAACAUCAUCUUAGCAAGUUCGCUUGGGAUGCUGGAUGAGGCCUAGACGUCAAGGUACACACGUCUCCACAUGUAUCUAUGGAAACGAAGCAAGGAAAGCCAGGUAACAACAGAGGAUUGAGCAUCA
B17: chr8:113366663:113366664:-_ENSMUSG00000033732_ENSMUST00000042012|mus_hu|motif|central (ssRNA)
RNA: GGGAGUUCUACAGUCCGACGAUCCAAUUUCUGUUUCUCAAUGGCACUAAUCAUAACGGCUCGCCCUUUGGGAUCCACAGCGGAGAACUGGCCAGGAACGAUGCGACGGCAUCCACUCUUGCCAAAGGUUUCUUGGUGAAUCUUCAACAGAGGAUUGAGCAUCA
B18: chr11:46765198:46765199:-_ENSG00000175216_ENST00000415402|hu_mus|motif|central (ssRNA)
RNA: GGGAGUUCUACAGUCCGACGAUCUACAGAAUACAGUGUCCCUUCAGGGCUACAGAAGAAGAGCUCACAACUCAAAAGGAACGGUUAAAAGAGUUUCUAAUGGCUGAAAGCUAGGAAAAAUUAGGACAAUUUUACAAAUGAGCCCAACAGAGGAUUGAGCAUCA
B19: chr3:148802587:148802588:-_ENSG00000071794_ENST00000310053|hu_mus|hu_hu_hu_mus_False|1_18 (ssRNA)
RNA: GGGAGUUCUACAGUCCGACGAUCUCCAACAACUUGUCCUCUCAUAGUUCCAAAUAAAACCAAAUCUUGCUCUUCAUCACUCGUUAGGAAGUCAUCUGGAGGAAUAAUGUCUUGGAAUUCAAAACGUGGCAAGAAAGUUGGAUACAACAGAGGAUUGAGCAUCA
B20: chr10:33190432:33190433:-_ENSG00000150093_ENST00000302278|hu_mus|hu_hu_hu_mus_True|18_38 (ssRNA)
RNA: GGGAGUUCUACAGUCCGACGAUCUACAUUUUCCAAACCUGCAUGUGAAUAAAACCCUGGCCACAGAGCCCCAAAACUACCCUACUGUGACUAAGAUAAUUGCUACUUGAGCUUGGUUGUUGUGGGACCGCCUGAGUAGGAUUCCAACAGAGGAUUGAGCAUCA
B21: chr2:198351390:198351391:-_ENSG00000144381_ENST00000345042|hu_hu|hu_hu_hu_mus_False|68_78 (ssRNA)
RNA: GGGAGUUCUACAGUCCGACGAUCUCAUUCCCACCCUCCACAGAAAGGCUGCUUCUGUUCUCAUCUGGUGGUGGCAAGCGCUACAGUCCUGAUGCUCACAGAACAGUAGAGAUGCCUCAGUGAUUUAAGUUGAAAGCAGGACACCAACAGAGGAUUGAGCAUCA
B22: chr6:41757443:41757444:+_ENSG00000214736_ENST00000398881|hu_mus|hu_hu_hu_mus_False|1_58 (ssRNA)
RNA: GGGAGUUCUACAGUCCGACGAUCGAACCGUGCAGAGGCAACAUCUCAGCCGACACUGGGGGAUGGGGGGGCAGUGGGAAACUAGGCAGGCAAGGAGAGGGAGUCAACUUCAGCUGCCACUCAGGUAGGAUCUUGUGGGGCACACAACAGAGGAUUGAGCAUCA

The target of the assay is T1, UNK ZnF1-3. The assay can be described thus: nsRBNS (natural sequence RNA bind-n-seq); RBNS binding buffer (assumed for nsRBNS): 25 mM Tris pH 7.5, 150 mM KCl, 3 mM MgCl2, 0.01% Triton X-100, 500 ug/ml BSA, 20 U/ml SUPERase-In, 4 C; UNK is unkempt and MSI1 is Musashi-1; names of the RNAs are library labels; protein concentration not given here; high values mean tight binding.
In turn, B1 came in with a binding signal of 0.469 enrichment R.
The molecule B2 returned a binding signal of 0.504 enrichment R.
Molecule B3 showed a binding signal of 1.4 enrichment R.
B4 registered a binding signal of 0.932 enrichment R.
Molecule B5 came in with a binding signal of 0.962 enrichment R.
The figure for B6 is 0.762 enrichment R; for B7 it is 1.07 enrichment R.
Molecule B8 registered a binding signal of 0.966 enrichment R.
The figure for B9 is 2.49 enrichment R.
The figure for B10 is 1.39 enrichment R.
Under B11 stands 0.715 enrichment R; under B12, 1.94 enrichment R.
Molecule B13 returned a binding signal of 1.08 enrichment R.
Under B14 stands 0.47 enrichment R.
The figure for B15 is 0.83 enrichment R; for B16 it is 0.8 enrichment R; for B17 it is 0.826 enrichment R.
B18 registered a binding signal of 1.95 enrichment R.
Regarding B19, the binding signal was determined as 0.965 enrichment R.
With B20, the binding signal was found to be 1.13 enrichment R.
The figure for B21 is 1.25 enrichment R.
Under B22 stands 2.84 enrichment R.
